ChEMBL document CHEMBL4888484, “Replenishing the malaria drug discovery pipeline: Screening and hit evaluation of the MMV Hit Generation Library 1 (HGL1) against asexual blood stage Plasmodium falciparum ,using a nano luciferase reporter read-out” (2022)
Several values for one entry are separate records, joined by “and”; a condition that tells them apart may be missing. Equal values may be shown once. Screen size: about 150,000 compounds; about 540 (0.36%) showed an effect of 50% or more. The list shows a part of the results.

Tested on: Plasmodium falciparum
Assay: Primary screen in NF54 nanoGlo assay, in single point, at 2uM, 72h; a lower Z score goes with more inhibition
Assay type: functional, Erythrocyte
Details: timepoint 72 hour

## C=CCn1ccc(=O)c2c(C(F)(F)F)nccc21
  % Inhibition: -31%
  Z score: 3.58

## CCN(CC(=O)NC(=O)Nc1ccc(C)c(C)c1)[C@@H](C)c1cccc(O)c1
  % Inhibition: -2%
  Z score: 0.45

## CC(=O)N[C@H]1CCN(S(=O)(=O)c2sc(C)cc2C)C1
  % Inhibition: -1%
  Z score: 0.15

## C=CCN1CC2(CCC1=O)CCN(C(=O)[C@H](C)n1cnnn1)CC2
  % Inhibition: -10%
  Z score: 1.7

## Cc1cc(NC(=O)C(C)C)c(C)cc1O
  % Inhibition: -10%
  Z score: 1.07

## Cc1ncsc1CN1CCCN(S(=O)(=O)N2CCCCC2)CC1
  % Inhibition: -8%
  Z score: 0.93

## O=C(Cc1ccc(Cl)cc1)N1CCCC[C@@H]1CCN1CCCCC1
2 µM
  % Inhibition: -7% and -9%
  Z score: 1.01 and 1.25

## CN(CC1COCCO1)C(=O)C1CC(Cc2ccc(F)cc2)=NO1 (stereo not drawn)
  % Inhibition: -18%
  Z score: 2.3

## CC(C)=CCN1CC2(CCN(C(=O)c3onc4c3CCCC4)CC2)CC1=O
  % Inhibition: -6%
  Z score: 0.61

## CC1CN(CCN2CCCC(n3ccc(C(F)(F)F)n3)C2)CCO1 (stereo not drawn)
  % Inhibition: -14%
  Z score: 1.71

## COc1ccc([C@H](C(=O)Nc2ccc(N3CCOCC3)cc2)N(Cc2ccc(C)cc2)C(=O)Cn2nnc3ccccc32)cc1OC
  % Inhibition: -2%
  Z score: 0.19

## CCS(=O)(=O)N1CCN(C(=O)[C@H]2C[C@@H]2c2cnn(C)c2)CC1
  % Inhibition: -3%
  Z score: 0.57

## CC(C)Cc1nc(CO[C@H]2CCCN(C(=O)CC3CCN(C)CC3)C2)no1
  % Inhibition: 3%
  Z score: -0.42

## COc1ccc(C[C@@H](Cc2ccc3c(c2)OCO3)NC(=O)c2ccccc2C)cc1
  % Inhibition: -2%
  Z score: 0.31

## c1ccc(C2CN([C@H]3CCOC4(CCOCC4)C3)C2)nc1
  % Inhibition: 9%
  Z score: -1.2

## CCc1ccc(-c2ccc(C(=O)N(CC)CCCN(C)C)o2)cc1
  % Inhibition: -5%
  Z score: 0.95

## COCCCN1C[C@]2(CCCN(c3ncccn3)C2)CCC1=O
  % Inhibition: 2%
  Z score: -0.33

## O=C(Nc1ccc(N2CCN(C3CCCC3)C2=O)nc1)c1ccc2c(c1)OCO2
  % Inhibition: -12%
  Z score: 1.27

## O=C(NCCn1cc(-c2cccnc2)cn1)c1cncc(Br)c1
  % Inhibition: 5%
  Z score: -0.64

## COC(=O)N1CCC(N[C@H]2CCCc3ccc(F)cc32)CC1
  % Inhibition: -4%
  Z score: 0.51

## CN(C)c1cnn(Cc2nc3ncccn3n2)c(=O)c1
  % Inhibition: -3%
  Z score: 0.5

## COc1ccc2nc(NC(=O)C3CC=C(C)CC3C(=O)O)sc2c1 (stereo not drawn)
  % Inhibition: -29%
  Z score: 3.41

## Cc1nc(Cc2noc(-c3cc(C4CC4)nc4ccccc34)n2)no1
  % Inhibition: -1%
  Z score: 0.15

## CC(=O)NCc1ccc(-c2nc3ccccc3c(-c3ccccc3)c2Cl)o1
  % Inhibition: -14%
  Z score: 2.14

## CCN(Cc1cc2c(cc1OC)OCCCO2)[C@H]1CCCC[C@@H]1O
  % Inhibition: -11%
  Z score: 1.86

## CN1CCC(NC(=O)C2CCN(C(=O)c3ncn4c3CO[C@H](c3ccc(F)cc3)C4)CC2)CC1
  % Inhibition: -12%
  Z score: 1.08

## C[C@H](NC1CCN(Cc2ccccc2)CC1)C(=O)NCc1ccco1
  % Inhibition: -4%
  Z score: 0.54

## CC(C)C1CCCC(NC(=O)N(C)Cc2ncnn2CC(F)F)CC1 (stereo not drawn)
  % Inhibition: -9%
  Z score: 1.66

## CN(CCCNC(=O)c1cccc(-c2ccccc2C#N)c1)C1CCCC1
  % Inhibition: -16%
  Z score: 1.4

## Cc1cc(C)c(-c2nc(-c3ccncc3)no2)c(=O)[nH]1
  % Inhibition: -13%
  Z score: 2.55

## CCc1nnc(-c2nc3c([nH]2)CCCNC3=O)o1
  % Inhibition: -16%
  Z score: 1.66

## Cc1ccc(NC(=O)c2ncn3c2C(=O)N(C2CC2)[C@](C)(C(=O)NCc2ccc(F)cc2)C3)cc1
  % Inhibition: -17%
  Z score: 1.72

## CCCc1ncncc1C(=O)N[C@H]1CS(=O)(=O)C[C@@H]1OC
  % Inhibition: -11%
  Z score: 1.66

## CC(C)CNC(=O)[C@H](C)N(C)Cc1noc(C2CCC2)n1
  % Inhibition: -7%
  Z score: 1.13

## Cc1ncccc1NC(=O)[C@H](N)C(C)C
  % Inhibition: -9%
  Z score: 1.08

## CCOC(=O)c1[nH]c(C)c(C(=O)N2CCN(S(=O)(=O)c3ccccc3Cl)CC2)c1C
  % Inhibition: -15%
  Z score: 1.69

## CCCCCOC(=O)NC[C@H](O)c1ccccc1
  % Inhibition: -6%
  Z score: 1.21

## COc1c(F)cc(F)cc1NCc1ccc(-c2ccn[nH]2)o1
  % Inhibition: -8%
  Z score: 0.81

## COc1ccccc1NC(=O)Cn1nc2c3sc(N(C)C)nc3ncn2c1=O
  % Inhibition: -14%
  Z score: 1.4

## CC[C@H]1CC[C@H](NC(=O)c2cnc3ccccn23)CC1
  % Inhibition: -2%
  Z score: 0.32

## COc1ccc(CNC(=O)c2nonc2C)cc1OC
  % Inhibition: -12%
  Z score: 1.42

## CCOC(=O)c1c(Cc2ccccc2)n(CCc2ccccc2)c(C)cc1=O
  % Inhibition: 1%
  Z score: -0.14

## CCCOc1ccc(C(=O)Nc2nc3ccc(NC(C)=O)cc3o2)cc1
  % Inhibition: -23%
  Z score: 4.44

## CN(Cc1ccsc1)C(=O)CONC(=O)CCOc1ccccc1
  % Inhibition: 8%
  Z score: -1.16

## CCOc1ccc(-c2nccn2CCc2cnccn2)cc1CO
  % Inhibition: -17%
  Z score: 1.59

## CCN(C)C[C@H](C)C(=O)Nc1c(C)cnn1Cc1cccc(C)c1
  % Inhibition: -7%
  Z score: 1.39

## Cc1ccc(-c2ccccc2CN2CCC(c3cc[nH]n3)CC2)o1
  % Inhibition: -10%
  Z score: 1.6

## O=C(NC1CCN(C(=O)CCc2ccccc2)C1)N[C@H]1CC[C@H]1c1ccccc1 (stereo partly drawn)
  % Inhibition: 6%
  Z score: -0.84

## COc1nc(CNC(=O)COc2ccc(Cl)cc2)nc(N2CCOCC2)n1
  % Inhibition: 2%
  Z score: -0.21

## CCOC(=O)c1cc(C(=O)NCc2ccccn2)n(C)n1
  % Inhibition: -6%
  Z score: 0.79

## COc1ccc(N2CCN(Cc3ccc(-c4ccccc4)cc3)CC2)cc1
  % Inhibition: 5%
  Z score: -1

## Cc1nnc2c(=O)n(CC(=O)NCc3cccc(Cl)c3)c3cccnc3n12
  % Inhibition: -2%
  Z score: 0.25

## Cn1cc(C(=O)N2CC[C@H](c3noc(COc4ccc(F)cc4)n3)C2)cn1
  % Inhibition: -5%
  Z score: 1

## O=C(C[C@@H]1N=C(O)N(c2cccc3ccccc23)C1=O)NCCc1ccco1
  % Inhibition: -6%
  Z score: 0.75

## NCC(=O)Nc1nn(Cc2ccccc2)c2cccc(N3CCOCC3)c12
  % Inhibition: 9%
  Z score: -1.28

## O=C1CCCc2cc(C(=O)N[C@H]3C[C@H](CO)C3)ccc2N1
  % Inhibition: -7%
  Z score: 1.45

## CC(C)CC(C)(C)C(=O)N1CCO[C@H](C(=O)O)C1
  % Inhibition: 2%
  Z score: -0.37

## O=C(Cn1nnnc1CN1CCCCCC1)N1CCN(c2ccccc2)CC1
  % Inhibition: -13%
  Z score: 1.44

## Cc1ncnc(N2CCC3(CC2)c2nc[nH]c2CCN3S(C)(=O)=O)c1C
  % Inhibition: -13%
  Z score: 1.85

## COc1ccccc1NC(=O)Cn1ccnc1[C@H](O)c1ccccc1
  % Inhibition: -10%
  Z score: 1.6

## CCNC(=O)CCc1c(C)nn(-c2cccc(C)c2)c1Oc1ccccc1
  % Inhibition: -3%
  Z score: 0.34

## COc1ccc(C(=O)Nc2cnc3ccnn3c2)c(OC)c1
  % Inhibition: -1%
  Z score: 0.14

## Cc1cn2cc(C(=O)N(C)CCCCN3CCOCC3)ccc2n1
  % Inhibition: -16%
  Z score: 1.66

## Cc1ccc(C(=O)N(CC(=O)Nc2nc(CC(=O)NCc3ccc(F)cc3)cs2)C(C)C)cc1
  % Inhibition: 2%
  Z score: -0.34

## CN(C)S(=O)(=O)c1ccc(Cl)c(F)c1Cl
  % Inhibition: 3%
  Z score: -0.41

## CCOC[C@@H](O)CN1CCN(Cc2nc(C(=O)Nc3ccc(OC)cc3)co2)CC1
  % Inhibition: -14%
  Z score: 1.97

## CS(=O)(=O)Cc1ccc(C#CCC2CCCC2)nc1
  % Inhibition: -5%
  Z score: 0.95

## COc1ccc(CN2C[C@H]3COC[C@@]3(c3nnc(C)o3)C2)cc1F
  % Inhibition: -5%
  Z score: 0.71

## Nc1nc(-c2ccccc2Cl)nn1C(=O)c1cccc2ccccc12
  % Inhibition: -10%
  Z score: 1.71

## Cn1cnc(NCc2nnc(C3CC3)s2)cc1=O
  % Inhibition: -4%
  Z score: 0.46

## c1ccc(-c2ncn(CCc3c[nH]cn3)c2-c2cnc3ccccc3c2)cc1
  % Inhibition: -8%
  Z score: 1.47

## CCn1cnnc1C[C@H]1CCCN(C(=O)NCC(C)C)C1
  % Inhibition: -5%
  Z score: 0.7

## O=C(Cn1c(-c2cccs2)cc2cc(F)ccc21)N1CCOCC1
  % Inhibition: 12%
  Z score: -1.94

## CN1C(=O)c2cc(NC(=O)COc3ccccc3)ccc2Oc2ncccc21
  % Inhibition: 3%
  Z score: -0.4

## CC(C)(C)C(=O)N1CCN(S(C)(=O)=O)CC1
  % Inhibition: -12%
  Z score: 1.28

## Cc1nn(C)c(Cl)c1CNC[C@@H](c1ccsc1)N(C)C
  % Inhibition: 33%
  Z score: -4.48

## COCCc1noc(-c2cnc3nc(C)ccc3c2Nc2cccc(F)c2)n1
  % Inhibition: -18%
  Z score: 2.12

## Oc1ccc(Cl)c(CN2C[C@H](O)[C@@H](N3CCCC3)C2)c1Cl
  % Inhibition: -12%
  Z score: 1.06

## CC(C)C(=O)N1CCC([C@@H]2CN(C(=O)Cc3cccnc3)C[C@H]2COc2ccccc2)CC1
  % Inhibition: -6%
  Z score: 0.68

## O=C(Nc1cc(S(=O)(=O)N2CCOCC2)ccc1N1CCCC1)c1cc(-c2ccccc2Cl)nc2ccccc12
  % Inhibition: -11%
  Z score: 1.36

## CC[C@H](NC(=O)c1cncc(O)c1)c1cccc(C)n1
  % Inhibition: -7%
  Z score: 0.95

## Cc1ccccc1C1CC(C)N(C(=O)c2ccc(C(=O)O)o2)C1 (stereo not drawn)
  % Inhibition: 1%
  Z score: -0.15

## CC(C)c1cccc(CN[C@@H](C)C2CCOCC2)n1
  % Inhibition: -6%
  Z score: 1.17

## CCCn1ncc(C(=O)N2CCC[C@H]2COC)c1C
  % Inhibition: -12%
  Z score: 1.98
